In article PMC12136788 one finds binding signal data, which are given here for 22 molecules.

The other results are listed elsewhere or left out.

T1: UNK ZnF1-6 (called full-length) (human, UniProt Q9C0B0 30-357)
T1 sequence: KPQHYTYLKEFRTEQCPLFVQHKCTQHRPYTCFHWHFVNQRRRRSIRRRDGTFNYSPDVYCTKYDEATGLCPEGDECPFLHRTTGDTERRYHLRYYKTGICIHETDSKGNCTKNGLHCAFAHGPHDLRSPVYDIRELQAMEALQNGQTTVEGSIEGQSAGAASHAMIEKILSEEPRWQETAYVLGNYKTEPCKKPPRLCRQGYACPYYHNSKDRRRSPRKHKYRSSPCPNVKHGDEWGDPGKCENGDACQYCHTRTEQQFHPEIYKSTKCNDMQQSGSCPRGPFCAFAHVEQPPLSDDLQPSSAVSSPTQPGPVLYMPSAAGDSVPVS

B1: ENSG00000198589:be:win_4151|CDS|ENSG00000198589|bound_else_gene|NA|bound_elsewhere_windowed (ssRNA)
RNA: GGGAGUUCUACAGUCCGACGAUCCGGCUACACAUGAACUGGAAAAUAUUGAACCUACUCAAGGCCUUUCAAUAGAAGCCUCUGUGACAUUUUUGCAGAGGCUAAUUAGCCUUGUGGAUGUGCUUAUAUUUGCAAGUUCUCUUGCAACAGAGGAUUGAGCAUCA
B2: chr5:69350983:69352230:-|three_prime_utr|ENSG00000085231|control|control|control (ssRNA)
RNA: GGGAGUUCUACAGUCCGACGAUCCACAGCAUCCUACAAGGAAGAAAUCGUGCAUCAGCUGCCCAGUAAUAAACCAGAAGAGCUAGAAAAUAAUGUAGAUCAGAUCUUGAAAUGGAUUGAGCAGUGGAUCAAAGAUCAUAACUCCAACAGAGGAUUGAGCAUCA
B3: chrX:149581652:149582231:-|three_prime_utr|ENSG00000267978|control|control|control (ssRNA)
RNA: GGGAGUUCUACAGUCCGACGAUCCAAAUGUUCUUUUAAUGGUCAGUUUAAUGAACUUCACCAUCGAAGUUAAUGAAUGACAGUAGUCACACAUAUUGCUGUUUAUGUUAUUUAGGAGUAAGAUUCUUGCUUUUGAGUCACAUGCAACAGAGGAUUGAGCAUCA
B4: ENSG00000104231:stop:overlap|stop_codon|ENSG00000104231|stop_codon|NA|stop_codon (ssRNA)
RNA: GGGAGUUCUACAGUCCGACGAUCUCUUGGAAUAUCUUAAUGAUGAAGAACAAUUCUGUAAAAAUGUUGAAUCUUACUUGGAAUAGUCAUUCAAAGAUUCAAGUCAGAAAUCACAGGGAAAAUUCUAUUACAUGUUUAAGUCCACAACAGAGGAUUGAGCAUCA
B5: chr8:54147534:54147638:+|CDS|ENSG00000137547|unk|FALSE|unique (ssRNA)
RNA: GGGAGUUCUACAGUCCGACGAUCAAGUAUGGUUAUAUCUUACCUGAUAUCACUAAAGAUGAACUCUUCAAAAUGCUCUGUACUAGGAAGGAUCCAAGGCAGAUUUUCUUUGGUCUUGCUCCAGGAUGGGUGGUGAAUAUGGCCCAACAGAGGAUUGAGCAUCA
B6: chr12:98549714:98549829:+|3pUTR|ENSG00000120802|unk|total|mutant (ssRNA)
RNA: GGGAGUUCUACAGUCCGACGAUCGAAGAUGUAUAUUCCGACCAGCACACAAUUUUGAUUUCAAUCCGCCUUAUUCUAAUAUUCCGCUUUCCGAUCUUUCAUACACAUUUUCACGUACUUUGCAAUUGAGACCAGAAAGACUUGCAACAGAGGAUUGAGCAUCA
B7: chr1:168200228:168200338:+|3pUTR|ENSG00000143155|unk|FALSE|unique (ssRNA)
RNA: GGGAGUUCUACAGUCCGACGAUCUAUUUUCUGGAGUUAAAUUUGGAUGAUUUCUAAAUUAUCACAAAGUGGGACCUCAGCAGUAGUGAUGUGUGUGUCUCAUGAGCAGUGAGCACAGUCUGCAUUCAUCAUGAAACACUAUCUCAACAGAGGAUUGAGCAUCA
B8: chr11:112063736:112063838:+|3pUTR|ENSG00000150768|unk|FALSE|unique (ssRNA)
RNA: GGGAGUUCUACAGUCCGACGAUCGAGAGAAAAAAUUAACUAGGUUGCUACUUUAUUUGCCUAAAUACUUUUUUCUAUUUUGUUAGAUUUUGCCUUUCUUUUGGAAGGAAGGAGGCGAUAUUCUGGAUUAUAAAAAUGAAUUGGCAACAGAGGAUUGAGCAUCA
B9: chrX:101625945:101626046:+|CDS|ENSG00000102401|unk|total|mutant (ssRNA)
RNA: GGGAGUUCUACAGUCCGACGAUCAGGUUCACUUUUUUUCUUUUUAAAAGAAUUUCAAGUGUGUGCUGAUAAGGUUCUGGGAACCGAAAGUCACCAUGAUUUUUUGGUGAAAGUAAAAGUUGGAAAAUUCAUGGCCAAACUUGCCAACAGAGGAUUGAGCAUCA
B10: chr2:130346496:130346597:+|3pUTR|ENSG00000136718|unk|FALSE|unique (ssRNA)
RNA: GGGAGUUCUACAGUCCGACGAUCACUCAGUCAGGACAUGGACUUGGAACUCAGGAUGGGGCUGUCAUAGACAGACCCACCAGUAGGAACUGUCACAGAAUGGCCUGCUGAACUGGGAUGUGGAACUGUGGCGGGUGGAGAGGUCAACAGAGGAUUGAGCAUCA
B11: chr17:39604750:39604851:-|3pUTR|ENSG00000171532|msi1|total|mutant (ssRNA)
RNA: GGGAGUUCUACAGUCCGACGAUCAUUUUGGCGGGAGGGGAAGUGGAUUGAGAGGAAAGAGAGAGGCCAAGACAAUUUGUAACCCGAAUCCGUUUUUCCCUUUUCCUUUUUUUAAACAAACAAACAUACAAAAAAAAAAAAAAACAACAGAGGAUUGAGCAUCA
B12: chr1:17067390:17067767:-|3pUTR|ENSG00000117115|msi1|FALSE|unique (ssRNA)
RNA: GGGAGUUCUACAGUCCGACGAUCCCCAACAUGCAAAGCCCACAUUUAAAGGCCAGCCUCUGCCCCUUCAGUGAUGCGCUCUUUAGAAAUGCCAGUCCACUAUAUUCAGAAAUCCGCAGGGCACAAAACUUCCAGCAAGUCACUCAACAGAGGAUUGAGCAUCA
B13: chr7:39987650:39987751:+|CDS|ENSG00000065883|unk|total|mutant (ssRNA)
RNA: GGGAGUUCUACAGUCCGACGAUCUCCCGGCAUUCAAGAUCUCGCCGCAGGCACAGAUUGUCCCGAUCCAGAAGUCGUCAUUCCCGUAUUUCUCCCCGCACACUAACUCUGAAGAGCCGCCUGGCAGCUGAAUUGAACAAGAAUCAACAGAGGAUUGAGCAUCA
B14: chr12:123761472:123761573:+|3pUTR|ENSG00000185344|unk|total|mutant (ssRNA)
RNA: GGGAGUUCUACAGUCCGACGAUCAAUAAGGCAGUUUGAACGAACAGUCUUCCCACAGUCAGGCCAUUUUUGCUGAUUUGGUUCCGAAUUUUCAGAAAUACUCCGUACACUCCACCUGUUCUUUGAUGGGAAUAUCUAAGAAGGCAACAGAGGAUUGAGCAUCA
B15: ENSG00000107863:be:win_201|CDS|ENSG00000107863|bound_else_gene|NA|bound_elsewhere_windowed (ssRNA)
RNA: GGGAGUUCUACAGUCCGACGAUCUAUUGUUUAUCCCCCAGAGUCUGCAAUUCAAUUUUCAUAUAAGGAUGAAGAAAAUGGAAACAGAGGAGGAAAACAAAGAAACCGCUUGGAACCAAUGGAUACCAUAUUUGUUAAGCAAGUCAACAGAGGAUUGAGCAUCA
B16: chr4:112268257:112268372:+|CDS|ENSG00000138660|unk|total|mutant (ssRNA)
RNA: GGGAGUUCUACAGUCCGACGAUCAGUAAUCCUACAUCAGCCUCUGAUGAUUCCAAUGGGCUGGAGUGGGAAAAUGAUUUUGUCCGUGCCGAAAUGGAUGAUAAUGGAAAUUCCGAGUAUUCUGGAUUUGUAAAUCCUGUAUUACAACAGAGGAUUGAGCAUCA
B17: chr1:202892395:202892497:-|3pUTR|ENSG00000117153|unk|total|mutant (ssRNA)
RNA: GGGAGUUCUACAGUCCGACGAUCGCGAGAAGUGACCAUUGUUGGAGCACCAUCCAGAGCCCGUGACCAGUCCAGUGGACAGUCCGUGGGAGAAUCAAAAAUCCUUUCCAGAAUGUCUGUUUCUCACUAUGUGCACCGGGUGAUCAACAGAGGAUUGAGCAUCA
B18: chr11:30010719:30012678:-|CDS|ENSG00000182255|control|control|control (ssRNA)
RNA: GGGAGUUCUACAGUCCGACGAUCUUUGCUCAAGAAAUUUCGGAGCUCUACUUCUUCUUCCCUGGGGGACAAGUCAGAGUAUCUAGAGAUGGAAGAAGGAGUUAAGGAAUCUCUGUGUGCAAAGGAGGAGAAGUGUCAGGGAAACAACAGAGGAUUGAGCAUCA
B19: chr1:109313209:109313310:-|3pUTR|ENSG00000134243|msi1|total|mutant (ssRNA)
RNA: GGGAGUUCUACAGUCCGACGAUCCAGGGCAAUAUUUUUAACUUGGGGCAGGAAGAAGGGAGCAGCAGAGAAUUGACCCGAUACCGCACCUAUUAAAAGAGAACUCUUGCUUCUUCUGAGAUUUUUCAAGCUGUGCUUUGUGUGCAACAGAGGAUUGAGCAUCA
B20: chr19:19663270:19663666:-|CDS|ENSG00000105726|control|control|control (ssRNA)
RNA: GGGAGUUCUACAGUCCGACGAUCCGGGCAGCCCAAGCCCGGGCCGCAGCCGCGCGCGCUCCUUGCCGCCGGGCCGGCGCUCAUAGCGAACGGUGACGAGCUGGUGGCUGCCGUGUGGCCGUACCGGCGGUUGGCGCUGUUGCGCAACAGAGGAUUGAGCAUCA
B21: chr20:7981316:7981417:-|3pUTR|ENSG00000125827|unk|FALSE|bound_elsewhere (ssRNA)
RNA: GGGAGUUCUACAGUCCGACGAUCUAAGUUUUCUAAGCAAUAUUUUUCAAGCCAGAAGUCCUCUAAGUCUUGCCAGUACAAGGUAGUCUUGUGAAGAAAAGUUGAAUACUGUUUUGUUUUCAUCUCAAGGGGUUCCCUGGGUCUCAACAGAGGAUUGAGCAUCA
B22: chr7:95297675:95299102:-|three_prime_utr|ENSG00000005421|control|control|control (ssRNA)
RNA: GGGAGUUCUACAGUCCGACGAUCACAGUGUUUCACAAAGCUCUUUACUGUGAGCUCUAACAGACCGAUUUGCACCCAUGCCAUAGAAACUGAGGCCAUUAUUUCAACCGCUUGCCAUAUUCCGAGGACCCAGUGUUCUUAGCUCAACAGAGGAUUGAGCAUCA

This assay deals with T1, UNK ZnF1-6 (called full-length). Put plainly: nsRBNS (natural sequence RNA bind-n-seq); RBNS binding buffer (assumed for nsRBNS): 25 mM Tris pH 7.5, 150 mM KCl, 3 mM MgCl2, 0.01% Triton X-100, 500 ug/ml BSA, 20 U/ml SUPERase-In, 4 C; UNK is unkempt and MSI1 is Musashi-1; names of the RNAs are library labels; protein concentration not given here; high values mean tight binding.
Molecule B1 had a binding signal of 0.203 enrichment R.

B2 had a binding signal of 0.585 enrichment R.

In turn, B3 came in with a binding signal of 0.441 enrichment R.

Regarding B4, the binding signal is 0.483 enrichment R.

Molecule B5 returned a binding signal of 0.713 enrichment R. For B6 the value was 0.888 enrichment R; for B7, 0.358 enrichment R. B8 registered a binding signal of 0.698 enrichment R.

Regarding B9, the binding signal is 0.312 enrichment R. The value for B10 was 1.47 enrichment R. Regarding B11, the binding signal was found to be 0.939 enrichment R. B12 registered a binding signal of 0.964 enrichment R. For B13 the value was 0.714 enrichment R.

The molecule B14 came in with a binding signal of 0.271 enrichment R. B15: the binding signal was 0.254 enrichment R. For B16, the binding signal is 0.339 enrichment R. As for B17, the binding signal turned out to be 0.412 enrichment R. For B18 the value was 0.697 enrichment R; for B19, 0.928 enrichment R. B20 returned a binding signal of 0.464 enrichment R.

On to B21, for which the binding signal came to 0.677 enrichment R. Regarding B22, the binding signal stood at 0.683 enrichment R.
